Measured values: PubChem BioAssay AID360 (National Center for Advancing Translational Sciences (NCATS), 2006)
About 550 (1.1%) of roughly 48,000 compounds were called active. Another 4% or so got no clear call; they are omitted. Cut-off read from the data, not from the text of the source: active = potency below about 15 µM; inconclusive = mostly about 16 µM to 33 µM; inactive = weaker than that. The list shows a part of the results.

Biological target: Lysosomal acid glucosylceramidase (Homo sapiens) (UniProt P04062)
Chain of UniProt P04062 (P04062 whole entry, looked up): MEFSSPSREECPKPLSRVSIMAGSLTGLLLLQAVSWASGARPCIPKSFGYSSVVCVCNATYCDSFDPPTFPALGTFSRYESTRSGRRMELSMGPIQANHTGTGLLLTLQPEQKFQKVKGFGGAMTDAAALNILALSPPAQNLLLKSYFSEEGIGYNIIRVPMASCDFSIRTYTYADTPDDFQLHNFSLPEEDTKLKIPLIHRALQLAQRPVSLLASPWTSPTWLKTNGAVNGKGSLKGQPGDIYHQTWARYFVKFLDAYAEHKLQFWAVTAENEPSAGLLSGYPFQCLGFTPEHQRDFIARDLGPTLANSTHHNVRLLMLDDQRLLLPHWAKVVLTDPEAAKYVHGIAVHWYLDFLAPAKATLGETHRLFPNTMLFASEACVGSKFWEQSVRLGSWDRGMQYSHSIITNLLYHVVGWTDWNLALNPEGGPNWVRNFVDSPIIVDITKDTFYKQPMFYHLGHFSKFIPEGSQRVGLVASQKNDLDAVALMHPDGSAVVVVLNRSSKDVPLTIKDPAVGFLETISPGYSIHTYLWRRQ
Assay: Glucocerebrosidase;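 note: the screen sought inhibitors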
Details: purified enzyme, resorufin glucoside fluorescence (screen aimed at inhibitors), 20 min; series mostly up to 77 µM
Procedure, shortened: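 Wild-type enzyme at 0.2 nM final in 50mM citric acid/KH2PO4, 10mM sodium taurocholate, 0.01% tween-20, pH 5.9, with resorufin beta-D-glucopyranoside at 30 uM final. Compounds titrated, 20 min at RT, red fluorescence read; AC50 from titration.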
Potency is the fitted concentration of half-maximal effect.

Row | SMILES | Potency
1 | Cc1cc2oc(=O)cc(CN3CCN(S(=O)(=O)c4ccc5c(c4)OCCO5)CC3)c2cc1C | inactive: > 76.9 µM
2 | c1coc(C2Nc3cccc4cccc(c34)N2)c1 | inactive: > 76.9 µM
3 | COc1cc(C(=O)N(Cc2ccccn2)CC2CCCO2)cc(OC)c1OC (stereo not drawn) | inactive: > 76.9 µM
4 | NC(=O)C[C@@H]1N[C@]2(C(=O)Nc3ccccc32)[C@@H]2C(=O)N(C3CCCCC3)C(=O)[C@H]12 | inactive: > 76.9 µM
5 | CCOc1ccc(Nc2oc(Cc3ccccc3)nc2C#N)cc1 | inactive
6 | CCCCc1ccc(NC(=O)c2c(C)noc2C)cc1 | inactive: > 76.9 µM
7 | CCOC(=O)Cc1c(C)c2c(C)nn(-c3ccccc3)c2oc1=O | inactive: > 76.9 µM
8 | O=C(c1cc2n(n1)C(C(F)(F)F)CC(c1ccco1)N2)N1CCc2ccccc2C1 (stereo not drawn) | inactive: > 76.9 µM
9 | Cn1c(=O)n(CC(=O)N2CCOCC2)c2ccccc21 | inactive: > 76.9 µM
10 | CCOc1ccc2nc(NS(C)(=O)=O)sc2c1 | inactive: > 76.9 µM
11 | CCC1(C)Nc2ccccc2C(=O)N1O (stereo not drawn) | inactive: > 76.9 µM
12 | O=S1(=O)N=CN(Cc2cccc(F)c2)c2ccccc21 | inactive: > 76.9 µM
13 | CCOc1ccc2nc(SCC(=O)NCc3ccco3)sc2c1 | inactive: > 76.9 µM
14 | Cc1cc(NC(=O)COC(=O)C2CCCN2C(=O)c2cccs2)no1 (stereo not drawn) | inactive: > 76.9 µM
15 | CC(=O)Nc1ccc(Oc2nc(C)cc(C)n2)cc1 | inactive: > 76.9 µM
16 | Cc1ccnc(NC(=O)CCC(=O)N(CC(=O)NCC2CCCO2)Cc2ccc(F)cc2)c1 (stereo not drawn) | inactive: > 76.9 µM
17 | COc1ccc(CN2CCN(c3ccccn3)CC2)cc1OCc1ccccc1 | inactive: > 76.9 µM
18 | CCCOc1ccccc1Nc1nnc(C)c(=O)[nH]1 | inactive: > 76.9 µM
19 | COc1ccc(-c2cc(C(=O)Nc3cc(OC)c(OC)c(OC)c3)no2)cc1OC | inactive: > 76.9 µM
20 | Cc1ccc(S(=O)(=O)N2CCCC2C(=O)N(C)Cc2cccs2)cc1 (stereo not drawn) | inactive: > 76.9 µM
21 | c1ccc(CNc2nc3ccccc3n2CCN2CCOCC2)nc1 | inactive: > 76.9 µM
22 | CCCN1CCC(NC(=O)Nc2ccc(OC)c(OC)c2)CC1 | inactive: > 76.9 µM
23 | CCOC(=O)C1CCCN(S(=O)(=O)c2ccc(Br)s2)C1 (stereo not drawn) | inactive: > 76.9 µM
24 | CCOCCCNC(=O)c1c(C)[nH]c(C(=O)OCC)c1C | inactive: > 76.9 µM

Row | SMILES | Potency
25 | CCN(CC)S(=O)(=O)c1cccc(C(=O)Oc2cccnc2)c1 | inactive: > 76.9 µM
26 | CCOC(=O)CCc1nc2ccccc2[nH]c1=O | inactive: > 76.9 µM
27 | CCOC(=O)c1sc(C)c(C(=O)NCCCN2CCOCC2)c1N | inactive: > 76.9 µM
28 | COC(=O)CCn1nnc(-c2cccs2)n1 | inactive: > 76.9 µM
29 | COCCNC(=O)CCCCCN1C(=O)CCC1=O | inactive: > 76.9 µM
30 | O=C(c1cnccn1)N1CCc2ccccc21 | inactive: > 76.9 µM
31 | COc1cc(N/C(=N/S(=O)(=O)c2ccccc2)c2ccccc2)ncn1 | inactive: > 76.9 µM
32 | O=C(c1c(F)cccc1F)N1CCN(c2ccccc2F)CC1 | inactive: > 76.9 µM
33 | CC(=O)NC(Cc1ccc(F)cc1)C(=O)O (stereo not drawn) | inactive: > 76.9 µM
34 | CCCCC(CC)C(=O)NCc1ccccc1OC (stereo not drawn) | inactive: > 76.9 µM
35 | CC(=O)CC(=O)NC(=NC1CCCCC1)Nc1nc(C)cc(C)n1 | inactive
36 | CC1CN(Cc2nc3c(c(=O)n(C)c(=O)n3C)n2CC(O)CO)CC(C)O1 (stereo not drawn) | inactive: > 76.9 µM
37 | O=C(COC(=O)CNS(=O)(=O)/C=C/c1ccccc1)NC1CCS(=O)(=O)C1 (stereo not drawn) | inactive: > 76.9 µM
38 | CCC(C)NC(=O)CCCCCn1c(=O)[nH]c2cc(OC)c(OC)cc2c1=O (stereo not drawn) | inactive: > 76.9 µM
39 | CCS(=O)(=O)c1nc2ccccc2n1CC(=O)N1CCCCC1 | inactive: > 76.9 µM
40 | Cc1ccc(C)c(N(C)S(=O)(=O)c2cccc3nsnc23)c1 | inactive: > 76.9 µM
41 | O=C(CCc1nc(-c2ccccc2)no1)N1CCCC1 | inactive: > 76.9 µM
42 | COc1ccc(-c2ncc3ccccn23)cc1 | inactive
43 | C=C(C)CSc1nnc([C@H](CCSC)NC(=O)OC(C)(C)C)o1 | inactive: > 76.9 µM
44 | CCC1CCCCN1CCCNC(=O)CNC(=O)Cn1ccc2ccccc2c1=O (stereo not drawn) | inactive: > 76.9 µM
45 | COC(=O)Cc1c(C)nc2nc(-c3cccnc3)[nH]n2c1=O | inactive: > 76.9 µM
46 | CCNC(=O)NC(=O)C(C)OC(=O)c1cccnc1SC (stereo not drawn) | inactive: > 76.9 µM
47 | CCCC(c1nnnn1C1CCCCC1)N1CCN(c2ncccn2)CC1 (stereo not drawn) | inactive: > 76.9 µM
48 | O=S(=O)(Nc1cccnc1)c1ccc2c(c1)OCCO2 | inactive: > 76.9 µM

Row | SMILES | Potency
49 | Cc1cccnc1NC(=O)COc1ccc2oc3c(c2c1)CCCC3 | inactive: > 76.9 µM
50 | CCN(Cc1ccncc1)C(=O)c1cccc(S(=O)(=O)N2CCOCC2)c1 | inactive: > 76.9 µM
51 | CCCCC(c1nnnn1C1CCCC1)N1CCN(C2CCCCC2)CC1 (stereo not drawn) | inactive: > 76.9 µM
52 | O=C(CN1C(=O)C2(OCCCO2)c2ccccc21)NCc1ccccc1 | inactive: > 76.9 µM
53 | OCCNc1nc(N2CCN(Cc3ccccc3)CC2)nc2ccccc12 | active: 13.2 µM
54 | O=C(COC(=O)CSCC(=O)N1CCCCC1)Nc1ccc(Cl)cc1 | inactive: > 76.9 µM
55 | O=C(OCCN1CCCC1)C1(c2ccccc2)CCCC1 | inactive: > 76.9 µM
56 | COc1ccc(N(C(C)C(=O)NCc2ccco2)S(C)(=O)=O)cc1 (stereo not drawn) | inactive: > 76.9 µM
57 | COC(=O)c1sccc1NC(=O)c1ccc(OC)cc1 | inactive: > 76.9 µM
58 | CC1Cc2ccccc2N1C(=O)COC(=O)Cn1nnc(-c2ccccc2)n1 (stereo not drawn) | inactive: > 76.9 µM
59 | CCOc1ccccc1NS(=O)(=O)c1ccc(Br)s1 | inactive: > 76.9 µM
60 | COc1cc2c(cc1O)C(SC)=NC(C)(C)C2 | inactive: > 76.9 µM
61 | COc1cc(C(=O)NCc2ccc(-c3nc4ccccc4o3)cc2)cc(OC)c1OC | inactive: > 76.9 µM
62 | COc1ccc(NC(=O)CS(=O)CC(=O)Nc2ccc(OC)c(OC)c2)cc1 (stereo not drawn) | inactive: > 76.9 µM
63 | Cc1[nH]nc2c1C(c1ccc(Cl)cc1)C(C#N)=C(N)O2 (stereo not drawn) | inactive: > 76.9 µM
64 | Cc1ccc(-c2nnc(SCC(=O)N3CCCC3)o2)cc1 | inactive: > 76.9 µM
65 | COc1ccc(CC(=O)Nc2c3c(nn2-c2cccc(Cl)c2)CS(=O)(=O)C3)cc1 | inactive: > 76.9 µM
66 | Cn1c(=O)c2c(nc(SCC(=O)Nc3ccc(N4CCOCC4)c(Cl)c3)n2C)n(C)c1=O | inactive: > 76.9 µM
67 | O=C(O)CSc1nnc(-c2ccccc2)o1 | inactive: > 76.9 µM
68 | Cc1ccc(-c2nn3c(C)nnc3c3ccccc23)cc1S(=O)(=O)N1CCN(CCO)CC1 | inactive: > 76.9 µM
69 | Cc1sc(-n2cccc2)c(C(=O)O)c1C | inactive: > 76.9 µM
70 | Cc1c(N(C)C(=O)c2ccco2)c(=O)n(-c2ccccc2)n1C | inactive: > 76.9 µM
71 | COc1ccc(C)cc1S(=O)(=O)Nc1ccc(F)cc1 | inactive: > 76.9 µM
72 | Fc1ccc2c(Cl)c(-c3nnc(-c4cccs4)o3)sc2c1 | inactive: > 76.9 µM

Row | SMILES | Potency
73 | Cc1cc(Oc2ccc(Cl)cc2)nc(-c2ccccc2O)n1 | inactive: > 76.9 µM
74 | CCOC(=O)C(C)Oc1ccc(C2NC(=O)NC(C)=C2C(C)=O)cc1Br (stereo not drawn) | inactive: > 76.9 µM
75 | CC1(c2ccccc2)NC(=O)N(CC(=O)Nc2cccc(C#N)c2)C1=O (stereo not drawn) | inactive: > 76.9 µM
76 | COCCn1c(SCC(=O)Nc2cccc(OC)c2)nnc1-c1ccccc1 | inactive: > 76.9 µM
77 | O=C1CC(c2ccncc2)c2cc3c(cc2N1)OCO3 (stereo not drawn) | inactive: > 76.9 µM
78 | NS(=O)(=O)c1ccc(CNC(=O)NC23CC4CC(CC(C4)C2)C3)cc1 | inactive: > 76.9 µM
79 | O=C(O)C1C2C=CC(C2)C1C(=O)NCc1ccoc1 (stereo not drawn) | inactive: > 76.9 µM
80 | CCN1CCN(c2ccc(NC(=O)COc3ccccc3Cl)cc2)CC1 | active: 15.2 µM
81 | O=C(c1ccco1)N1CCN(Cc2nnnn2CCc2ccccc2)CC1 | inactive: > 76.9 µM
82 | CN(Cc1ccccc1)c1nc2c(c(=O)[nH]c(=O)n2C)n1C | inactive: > 76.9 µM
83 | CC(C(=O)N1CCc2ccccc21)N1CCc2ccccc2C1 (stereo not drawn) | inactive: > 76.9 µM
84 | COc1cccc(NC(=O)N[C@@H](Cc2ccccc2)C(=O)O)c1 | inactive: > 76.9 µM
85 | COC(=O)c1[nH]c2cccc(C)c2c1NC(=O)CN1CCCc2ccccc21 | inactive: > 76.9 µM
86 | COc1ccc(S(=O)(=O)N2CCCC(C(=O)Nc3ccc(OC)c(OC)c3)C2)cc1 (stereo not drawn) | inactive: > 76.9 µM
87 | Cc1cc(C(=O)Nc2ccc(N3CCOCC3)cc2)c2ccccc2n1 | inactive: > 76.9 µM
88 | CCOC(=O)N1CCN(C(=O)CSc2nnc(-c3ccccc3OC)o2)CC1 | inactive: > 76.9 µM
89 | CCCCNC(=O)c1cc2c(=O)n3cccc(C)c3nc2n(Cc2ccncc2)c1=N | inactive: > 76.9 µM
90 | COc1ccc(C2=NO[C@@H]3C(=O)N(c4ccc(C)cc4C)C(=O)[C@H]23)cc1OC | inactive: > 76.9 µM
91 | COc1ccccc1NC(=O)N(c1c(N)n(Cc2ccccc2)c(=O)[nH]c1=O)C1CCCC1 | inactive: > 76.9 µM
92 | Cc1cc(C)n(-c2c(F)c(F)c(CN3CCOCC3)c(F)c2F)n1 | inactive: > 76.9 µM
93 | Cn1c(=O)oc2cc(S(=O)(=O)NCc3ccncc3)ccc21 | inactive: > 76.9 µM
